In PubChem BioAssay AID1159614 (National Center for Advancing Translational Sciences (NCATS), 2016):
The whole screen tested about 45,000 compounds, of which about 65 (0.1%) were called active. Calls come from the whole dose curve; as a rule, active = well fitted activation curve with a large enough effect; inconclusive = small, poorly fitted or top-dose-only effect; inactive = no such curve, though single readings can be large or run the other way. The list shows a part of the results.

Biological target: Galactocerebrosidase (Homo sapiens) (UniProt P54803)
Test: A Novel Cell-Based Assay to Identify Small Molecules for B -Galactocerebrosidase; note: 0% is about no effect; nearly all actives have a fitted effect of over 65% in size
Settings: 145M-Twi-hGALC-G270D cells, HMU-beta-Gal fluorescence, 48 h; series mostly up to 57.5 µM; activation: at the top concentration
Outline: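 qHTS, 1536-well; 145M-Twi-hGALC-G270D cells (WT line also made) in DMEM/F12 + 10% FBS; compound incubation on live cells; HMU-β-gal 0.1 mM final, pH 5.2, NaTC; carbonate stop; fluorescence increase = enhanced residual activity.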

Sequence of UniProt P54803 (P54803 whole entry, looked up): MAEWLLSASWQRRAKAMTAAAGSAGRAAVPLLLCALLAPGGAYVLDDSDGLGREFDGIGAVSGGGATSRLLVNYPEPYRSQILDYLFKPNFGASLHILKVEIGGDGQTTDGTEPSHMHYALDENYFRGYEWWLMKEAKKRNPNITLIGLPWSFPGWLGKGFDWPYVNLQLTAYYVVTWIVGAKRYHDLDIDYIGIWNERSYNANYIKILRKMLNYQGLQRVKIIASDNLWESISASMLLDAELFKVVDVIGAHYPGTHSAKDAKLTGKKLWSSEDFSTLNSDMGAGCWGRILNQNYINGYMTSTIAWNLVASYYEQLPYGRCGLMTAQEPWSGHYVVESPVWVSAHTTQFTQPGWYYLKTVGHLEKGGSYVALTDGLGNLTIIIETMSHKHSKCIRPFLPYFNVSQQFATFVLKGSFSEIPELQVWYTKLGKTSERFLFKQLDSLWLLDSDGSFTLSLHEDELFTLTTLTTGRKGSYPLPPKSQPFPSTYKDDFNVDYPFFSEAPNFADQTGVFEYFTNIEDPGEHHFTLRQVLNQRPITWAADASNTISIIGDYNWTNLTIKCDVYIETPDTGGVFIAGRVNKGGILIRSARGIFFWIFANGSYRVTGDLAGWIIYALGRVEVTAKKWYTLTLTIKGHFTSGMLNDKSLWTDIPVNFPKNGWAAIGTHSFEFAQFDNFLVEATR

activation, inactive:
Cc1ccc(OCc2ccc(-c3nc(C#N)c(N4CCC(C)CC4)o3)o2)cc1 -13.2%
Cc1cc(C)cc(NC(=O)c2sc3nc(-c4cc5ccccc5oc4=O)[nH]c(=O)c3c2C)c1 -15.5%
COC(=O)c1c(C)sc(-c2c(-c3cccc(Cl)c3)[nH]c3c2c(=O)[nH]c(=O)n3C)c1O -15.4%
CCc1ccccc1NC(=O)C1CCN(C2=NS(=O)(=O)C(c3ccc(C)c(C)c3)=C2C)CC1 0.274%
COc1ccc(C(=O)CN2C(=O)N(c3cc(C)ccc3C)S(=O)(=O)c3ccccc32)cc1 -8.76%
C=CC(=O)Nc1cc2c(Nc3ccc(F)c(Cl)c3)ncnc2cc1OCCCN1CCOCC1 -8.26%
CCCNC(=O)CCC(=O)N1Cc2ccccc2Oc2ncccc21 -2.81%
CCOC(=O)c1c(C)oc2nc(C)nc(NC(C)c3ccccc3)c12 (configuration not stated) -10.5%
CNC[C@H](O)c1ccc(O)c(O)c1 -6.52% [at 23.8 µM]
CC1=C(C(=O)OCc2ccc(C)cc2)C(c2ccccc2Cl)CC(=O)N1 (configuration not stated) -5.39%
Cc1nc2c3ccccc3nc(NNC(=O)CCC(=O)N3CCN(c4ccccc4)CC3)n2n1 -9.6%
Cc1cccc(OCC(=O)Nc2ccc3c(c2)nc(CCNC(=O)c2ccco2)n3C)c1 -11.9%
CCOc1ccc(CNC(=O)c2ccc(CS(=O)c3ccccc3)o2)cc1 (configuration not stated) -4.87%
O=C(C1CCN(S(=O)(=O)c2cccc3nonc23)CC1)N1CCN(c2ccccc2)CC1 5.38%
COc1ccc(NC(=O)c2nnn(Cc3ccc(Br)cc3F)c2N)c(OC)c1 -1.81%
CN1CCN(CCCN2c3ccccc3Sc3ccc(C(F)(F)F)cc32)CC1 -14.5%
Cc1ccc(Cl)cc1N1CCN(CCNC(=O)Nc2ccc(Cl)cc2)CC1 -3.63%
COc1ccc(N2CCN(C(=O)c3nc(-c4ccc(Cl)cc4)n4c3CCCCC4)CC2)cc1 -23.8%
Cc1ccc(N2CC(NC(=O)c3ccc4c(c3)OCO4)CC2=O)cc1 (configuration not stated) -16.1%
Cc1ccc(-n2c(SCC(=O)Nc3cccc(Cl)c3)nc3n[nH]c(C)c3c2=N)cc1 -27.9%
CC(=O)N1CCCc2ccc(NS(=O)(=O)c3ccc(F)cc3F)cc21 -8.96%
Cc1ccccc1NC(=O)Cn1nc(-c2ccc(F)cc2)c2cnc3ccccc3c21 -2.41%
CS(=O)(=O)N1CCc2cc(C(=O)N3CCN(c4ccc(F)cc4)CC3)ccc21 2.97%
CCc1ccccc1NC(=O)CSc1nnc(CC)c(CC)n1 -12.9%
Cc1ccc2nc(NC(=O)c3cc(=O)c4cc(Cl)ccc4o3)sc2c1 -8.77%
Cn1c(Oc2ccc(F)cc2)nc2c1c(=O)n(Cc1ccccc1Cl)c(=O)n2C -11.9%
CC(=O)N1CCc2c(sc3c2c(=O)n(-c2ccc(C)cc2)c(=O)n3CC(=O)Nc2ccccc2)C1 -1.66%
O=C(NCCc1ccc(Cl)cc1)c1ccc(CS(=O)(=O)Cc2ccccc2F)o1 -6.45%
CCOc1ccc(-c2c(C)nn3c(C)c(C(=O)NCc4ccc(C)o4)cnc23)cc1OCC -20.5%
Cc1cc(N2CCC(C)CC2)nc2ccc(NC(=O)/C=C/c3cccc(Cl)c3)cc12 -9.45%
COC(=O)Nc1nc2ccc(C(=O)c3cccs3)cc2[nH]1 -16.9%
CC(C)c1ccc(Nc2c(-c3ccccc3O)nc3cnccn23)cc1 -9.94%
COc1ccc(Cn2ccc3nc(C)c(C(=O)Nc4ccc(C)c(F)c4)cc3c2=O)cc1 -11.9%
Cc1ccc(-c2cc(C(=O)NCc3ccccc3)c3c(-c4ccc(C)cc4)[nH]nc3n2)cc1 -6.66%
COC(=O)c1c(NC(=O)c2ccccc2C(=O)O)sc2c1CCCC2 -16.4%
COc1ccccc1NC(=O)c1c(NC(=O)c2ccccc2F)sc2c1CCC2 10.4%
CCSc1nc2c(c(=O)[nH]c(=O)n2C)n1CC(O)COc1ccc(Cl)cc1 (configuration not stated) -10.6%
COc1ccc(N2CCN(C(=O)c3ccc4c(c3)CCN4S(C)(=O)=O)CC2)cc1 -1.21%
Cc1nc(SCC(=O)Nc2ccc(Br)cc2)[nH]c(=O)c1Cc1ccccc1 -37.6%
Cc1c(Cl)cccc1NC(=O)Cn1nc(C)c2sc3ccccc3c2c1=O -26.1%
Cc1ccc(C)c(S(=O)(=O)c2nnn3c2nc(Nc2ccc(F)c(Cl)c2)c2sccc23)c1 -14.5%
CCc1ccc(OCC(=O)NCc2nc(-c3cccc(C)c3)no2)c(Br)c1 -25.7%
Cc1ccc2c(c1)N(C(=O)N1CCC(C(=O)NCc3ccco3)CC1)CC(C)O2 (configuration not stated) -11.1%
Cc1ccc(S(=O)(=O)CCC(=O)N2CCN(c3nc4c(C)c(Cl)ccc4s3)CC2)cc1 -42.5%
CCCCOC(=O)c1ccc(NC(=O)Cc2coc3ccc(C(C)C)cc23)cc1 -10.9%
CC(=O)N1CCC2(CC1)OC(=O)C(C)=C2C(=O)Nc1ccccc1C(F)(F)F 3.69%
CCOC(=O)C1CCN(C(=O)Cn2ncc3c([nH]c4ccc(C)cc43)c2=O)CC1 4.13%
Cc1cccc(N(CC(=O)NCCSc2ccc(Cl)cc2)S(=O)(=O)c2ccccc2)c1C -14.5%
COc1cc(C(=O)N2CCc3c([nH]c4ccccc34)C2c2ccccc2)cc(OC)c1OC (configuration not stated) -27.8%
Cc1cccc(C(=O)Nc2nc(-c3ccc(Br)cc3)ns2)c1 -8.22%
COc1ccccc1CCNC(=O)Cn1ccc2cc(S(=O)(=O)N3CCCCCC3)ccc21 -19.2%
CCc1nnc(SCc2nc(-c3ccc(OC)cc3)oc2C)c2cc3sccc3n12 -6.17%
COc1cccc(-c2nn(C)c3sc(C(=O)N4CCN(c5cccc(C)c5)C(C)C4)cc23)c1 (configuration not stated) -11.7%
Cc1ccc(C)c(N2CCN(C(=O)c3cc(S(=O)(=O)N4CCCC4)cn3C)CC2)c1 -15.2%
CCOC(=O)C1CCC(CN(Cc2c(Cl)cccc2Cl)S(=O)(=O)c2ccc(F)cc2)CC1 (configuration not stated) -17.8%
CN(C)CCN1C(=O)c2ccccc2N(C)c2ccccc21 -8.41%
CCCC(=O)OC[C@@H](OC(=O)CCC)[C@@H](OC(=O)CCC)[C@H](Cn1c2nc(=O)[nH]c(=O)c-2nc2cc(C)c(C)cc21)OC(=O)CCC -4.91%
CSc1ncc(C(=O)N2CCN(c3ccc(F)cc3)CC2)c(C)n1 -9.97%
CC(S)C(=O)NCC(=O)O (configuration not stated) -6.99%
CCCC(=O)O[C@]1(C(=O)COC(=O)CC)CC[C@H]2[C@@H]3CCC4=CC(=O)CC[C@]4(C)[C@H]3[C@@H](O)C[C@@]21C -16% [at 23.8 µM]
COc1ccc(NC(=O)Cn2cnc3sc(C)c(S(=O)(=O)N4CCN(C)CC4)c3c2=O)cc1OC -1.34%
CCOc1ccc(CNC(=O)c2cc3oc4ccccc4c3n2C)cc1 -15.5%
Cc1ccc(C)c(NC(=O)Cn2cc(C(=O)c3ccncc3)c(=O)c3cc(F)ccc32)c1 -14.8%
O=C(CSc1nc2c(c(=O)[nH]1)CCC2)Nc1ccccc1F -12.2%
CN(C)c1ccc(CNc2nc(-c3ccco3)nn2S(=O)(=O)c2ccc3ccccc3c2)cc1 -7.7%
Cc1cc(C)c2c(CC(=O)N(Cc3ccc(N(C)C)cc3)Cc3ccco3)coc2c1 -18.7%
Cc1ccc(CCNC(=O)CN(c2ccc(C)cc2)S(=O)(=O)c2c(C)noc2C)cc1 5.26%
Cc1c(Cl)ccc2sc(N3CCN(C(=O)c4ccco4)CC3)nc12 -18.1%
COc1ccccc1CNc1ccc(-c2nc(C(C)C)no2)cc1[N+](=O)[O-] -38.5%
CN(C(=O)C(Cl)Cl)c1ccc(OC(=O)c2ccco2)cc1 -12.7%
O=C(Nc1ccc(F)cc1)[C@H](Cc1ccccc1)N1Cc2ccccc2C1=O 4.24%
Cn1nnnc1SCCCNCc1cccc(OCc2ccc(Cl)cc2)c1 -12.8%
CC(C)CCOc1ccc(C(=O)Nc2sc3c(c2C#N)CCCCC3)cc1 -7.84%
Cc1ccccc1OCc1ccc(-c2nc(C#N)c(NCCCN(C)C)o2)o1 -27.3%
Cc1ccc(C(=O)Nc2ccc(Cl)c(-c3nc4ncccc4o3)c2)c(C)c1 -13.9%
Cc1ccccc1-c1nc(CNC(=O)Nc2ccccc2)c(C)o1 -11.5%
COc1cccc(-c2nc(-c3ccc(-c4ccccc4)nc3OC)no2)c1 -14.7%
CCOC(=O)C1CCN(C(c2ccccc2OC)c2c(O)cc(C)n(CCOC)c2=O)CC1 (configuration not stated) -5.27%
COC(=O)c1ccc(Nc2ncnc3c2nc2n3CCCC2)cc1 -35.3%
CCOc1ccc(C(=O)NCCn2cc(SCC(=O)NCCc3ccc(OC)c(OC)c3)c3ccccc32)cc1 -7.73%
CCOc1ccccc1NC(=O)C1CCN(S(=O)(=O)c2c(C)noc2/C=C/c2ccc(C)cc2)CC1 -8.87%
O=C(Nc1ccccc1)c1cccc2c(=O)c3c([nH]c12)CCCC3 -11.8%
CCOC(=O)N1CCN(C(=O)CN(c2cccc(Cl)c2C)S(=O)(=O)c2ccc(C)cc2)CC1 -27.5%
Cc1cccc(-n2c(SCC(N)=O)nc3c(oc4ccccc43)c2=O)c1 -7.55%
COc1ccccc1-c1nc(-c2ccc(Br)o2)no1 -35.9%
O=C(c1cc2c(=O)oc3ccccc3c2s1)N1CCN(c2cccc(Cl)c2)CC1 0.983%
COc1ccc(Cl)cc1NC(=O)Cn1ccn(Cc2ccc(C)cc2)c(=O)c1=O 9.18%
COc1ccccc1OCCn1cc(C(=O)c2cccs2)c2ccccc21 -34.2%
COc1cc(/C=C/C(N)=O)cc(OC)c1OC -12.1%
Cc1ccc(-n2nc3c(N4CCC(C(=O)NC(C)C)CC4)nnc(C)c3c2C)cc1 -3.89%
Nc1ccn([C@H]2CC[C@@H](CO)O2)c(=O)n1 -10.7%
Cc1cc(C)cc(NC(=O)c2cc(S(=O)(=O)N3CCCCCC3)cn2C)c1 -10.5%
COCCn1c(SCC(=O)c2cc(C)ccc2C)nc2cc(C(=O)NC3CCCC3)ccc2c1=O -3.06%
CCN(CC)CCN(C(=O)c1ccco1)c1nc2ccc(Cl)cc2s1 -19.8%
Cc1nn(CC(=O)NC2CC2)c(=O)c2cc3ccccc3n12 -8.13%
Cn1c(SCc2ccc(F)cc2)nc2ccc(C(=O)NCc3ccc(F)cc3)cc21 -10.9%
CCC1CN(C(=O)N2CCC(C(=O)NCc3ccc(OC)cc3OC)CC2)c2cc(C)ccc2O1 (configuration not stated) -18.4%
